The supplement of paper PMC11417369
This is one part of the list.

Each sequence was assayed on PfHDP1 homeodomain (GST-tagged) (assay: gcPBM binding intensity (ln(normalized median fluorescence intensity)); higher = stronger DNA binding).
Outline: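 Alexa488 anti-GST antibody, scanned at 488 nm, detected GST-tagged P. falciparum DNA-binding domains that had been expressed in E. coli and incubated for 1 h on an Agilent 4 × 180k array. The array carried primer-extended double-stranded 36-bp intergenic genomic probes and negative controls. Binding intensity is the highest Masliner-normalised natural-log median intensity across replicate spots of either orientation of each probe.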

| Sequence | gcPBM binding intensity (ln) |
| --- | --- |
| TTTATATTTAAAAGGATGCACTACAAATTCTAAATA | 7.36 |
| TTATATTAAACAAACACACACATATAAATATAAATA [CACACA_site7174] | 6.9 |
| AAAACAAACAGACACACACACATATTTATATTTATA [CACACA_site7681] | 6.68 |
| AAGACAAATATGAAGAGTACATTTATATAAAAATTA [XGTACX_site5142] | 6.29 |
| CTACAATATCTTTAAAGTACTTTTATATAACTACCA [XGTACX_site6119] | 6.66 |
| GTAAATAAATAAATAAATAAATATATATATATATAT [CACACA_negctrl_site1737] | 9.25 |
| AATAAAAAAAAATTCACACAAAGTTAGATTAACTAT [CACACA_site4224] | 5.97 |
| AATGATCAGATATACACACACACAAAAAAAAAAAAA [CACACA_site7806] | 6.36 |
| AATTCACATGTGAACTAAAAGAATATTATATATATA [CACACA_negctrl_site1632] | 7.5 |
| AAATATATATATAGTACATGCAGTAGATAATTTAAT [TGCATGCA_site299] | 6.86 |
| ATTAGGTATTTTTTTTGTACATATTATATAATGTGA [XGTACX_site3815] | 6.69 |
| CACAAAAATTTATACACACACATATAAAATATAGAT [CACACA_site6218] | 6.54 |
| AGTTATTACACACAAACATGCATTAATATCAAAAAA [TGCATGCA_site63] | 6.79 |
| TTCACTATACAAAGGTGTACTTAATTTTGTCCCATT [XGTACX_site7483] | 6.15 |
| GTGTTGGGAAAAGGCATGCACTTTTTTTTTTTTTTT | 7.04 |
| ATGTATATGCAAACATGTACATATATAAACATATAT [XGTACX_site4159] | 6.64 |
| TTTTATTTTATTCAATTTTTACTTTTATAAAAATAT [GTGCAC_negctrl_site578] | 6.48 |
| AATATTAGGTTATGTAGTACATAACAATAATTATAC [XGTACX_site5733] | 6.61 |
| AAGGAATATGTATATACACACAGGTACATATTTATA [CACACA_site6344] | 6.78 |
| ATAAAGAATATAAATACACACTTAAATATATATTAT [CACACA_site6071] | 6.37 |
| TAAAATATACAAATTTGTACATATATATGTATGTAT [XGTACX_site1127] | 7.14 |
| TGCAGGTGTTATTCACGTACGCATTTGATTAAAAAA [XGTACX_site7743] | 6.25 |

| Sequence | gcPBM binding intensity (ln) |
| --- | --- |
| TAATTTTATATAAATTGTACAAAAATATTTTATTAA [XGTACX_site7166] | 6.32 |
| ATTAGAAAATAAAATAATAAATAAAATAAAAAAAAA [CACACA_negctrl_site409] | 6.35 |
| ATAAAAACATAAAAATGTACATATATATATATATAT [XGTACX_site7165] | 9.3 |
| TTTTTTTTTTTTGGTAGTACATAAATATTTTATGGA [XGTACX_site6851] | 6.25 |
| AGTGGGATTTTTAATTGTACATAAATAATATCATAA [XGTACX_site4163] | 6.56 |
| CATGTTATATATATATGTACTAAAAATATAATATAA [XGTACX_site1978] | 6.32 |
| AATAAGAATTAAAAATGTACAAAAAAATGTATTTAT [XGTACX_site8005] | 6.44 |
| AAGTATAAAATATTTTGTACTTAAAAAATTATATGG [XGTACX_site2180] | 6.46 |
| TATATATATTTTAACACACACATATATATATTTATA [CACACA_site2765] | 6.71 |
| AATATAAAATAGAAAAATGAAAAAAAAAAAAAGGGT [CACACA_negctrl_site1263] | 6.91 |
| TGTTTGATGGTACACGTACACACCTTGCAAATATTT [CACACA_site888] | 7.12 |
| CAATAAATAATAAATACATGCAAGTATGAAGATATA [TGCATGCA_site859] | 6.82 |
| ATATAAAATAAAAAAAAAAAAAAAAAAAAAAAAAAA [CACACA_negctrl_site1234] | 6.03 |
| TAATTAAAAAATGAATAAATGAATAAATAAATAAAT [CACACA_negctrl_site838] | 6.32 |
| TTTTTGTATCCTTTTAATATTAAATAAAAGGAATGT [CACACA_negctrl_site1468] | 6.46 |
| TTAATGTTTGAAAGAGTGCACATAACAAAAAAAAAA [GTGCAC_site9623] | 9.04 |
| TATGAATATTGCATGTGTACCTATTATCCTTTTAAA [XGTACX_site4311] | 6.95 |
| ATAATTATTTTCCCGTGTACTTATTTTTTTCAAGTA [XGTACX_site8843] | 7.03 |
| AACAAATTTTTTATTAAACACACAAACATATATATA [CACACA_site8588] | 6.84 |
| GCTCATTGAAATTATACACACCAAATATATAAATAT [CACACA_site5385] | 6.86 |
| TGTGAATATATCTTTAAAAAGGATAAATAATAATTT [CACACA_negctrl_site507] | 6.11 |
| AAAAAAAAAAAGATAAATACAAGTTACACAAAAAAA [GTGCAC_negctrl_site664] | 6.38 |

| Sequence | gcPBM binding intensity (ln) |
| --- | --- |
| ACGTTGCGACGCAAGGTGCTTATTTTCTTATAAATA | 6.11 |
| AGGGAATATTTTTATGCATGTGCTTACACATTACAA [TGCATGCA_site830] | 6.83 |
| AAAAAAAACGGACACACACACATACAAAATATATAT [CACACA_site4910] | 6.88 |
| AAATATAAACTCAGCACACAAACATATATATGTCAT [CACACA_site4004] | 6.67 |
| TTCTAATATTTACATAATATATAGAAATATAAAGGT [XGTACX_negctrl_site504] | 6.63 |
| GTAGACATTATAATGGTGCAAAAAAATTAACAAAAA [GTGCAC_site9891] | 10.6 |
| ATGGTATAAAAAAATACACACTTATATATATTCTTA [CACACA_site4427] | 6.25 |
| TTTTTTTTTTTTTCTCGTACAAAATAATACCTTTTT [XGTACX_site3867] | 6.56 |
| GCCATTGTACCATCCACACACATATATATCTGTATA [CACACA_site5490] | 7.4 |
| AAAAAAGAAGAGCACACACACATATATAAATATAAA [CACACA_site631] | 6.77 |
| TGGTATTAAGGAGAGGGTACAAAAAAAAAAAAAAAA [XGTACX_site1668] | 6.64 |
| TAAAATTTTGTTTGTTGTACTTATTTTCGTGTCAAC [XGTACX_site8277] | 6.77 |
| AAAGATGAATTTTTTACACACACCATTTTATAATAT [CACACA_site3676] | 6.68 |
| AAAAAAAAAAAAAAAAAAAAATATATATATATATAT [GTGCAC_negctrl_site426] | 9.44 |
| AAAAGTATAATAAATTGTACTAACAAATATTTATGT [XGTACX_site7721] | 6.21 |
| TACTTATCGTTAAATTGTACTAAAAAATATTTTTCT [XGTACX_site4665] | 6.5 |
| AATGTAAAACCTCCTACACACACCAATTAACTATTC [CACACA_site2112] | 6.77 |
| GTAATATATTTTTATGGTACACGAACTAGCCAAAAA [XGTACX_site6307] | 6.37 |
| CCGCATTTTACAGACACACACAATTTATATTACGGT [CACACA_site6974] | 6.5 |
| AGTAATAACTATATATGTACATATATATATTATTAG [XGTACX_site1113] | 6.21 |
| TAATATATTTATAAGTGTACACATTATATAAATCCC [XGTACX_site8875] | 6.91 |
| TTTTTTTTTTTAAATACATGCATGTCCTATTTAAAT [TGCATGCA_site494] | 6.73 |

| Sequence | gcPBM binding intensity (ln) |
| --- | --- |
| TTTTTTTGATAAAAGGTGCTACAAGATGAATACATA | 6.48 |
| GTTGTATAAAATAATACATGCATGTCCTACATATAT [TGCATGCA_site162] | 7.05 |
| ATAAATAAAAAAAAAAAAAAAAAAAAAAAAAAAATA [CACACA_negctrl_site1064] | 5.96 |
| AAGTATGCGTTATATACACACATACATTTATATATC [CACACA_site6207] | 6.75 |
| AGAGAGAAAGCTATAACATGCAACAATTTTTAGAAA [TGCATGCA_site95] | 6.86 |
| TCAGAGTGAAGTTATACACACATGGTTTTTTTTTTT [CACACA_site2116] | 6.36 |
| AGGAGGATATTACACAGTACCCAGTAACTCTACGGA [XGTACX_site1998] | 6.36 |
| CTCTTATACATATTCCTGCACTTATTTTTAAAAACA [GTGCAC_site9620] | 8.08 |
| ATCATATTTTTATGTGTGCACTTTTTTTTTTTTTTT [GTGCAC_site9555] | 8.73 |
| AAAAATGGTGTTAACACACACATATAAATAAATATA [CACACA_site6412] | 6.27 |
| AACATAAGTAATATTTGTACATATATAATAATATAT [XGTACX_site5123] | 6.43 |
| AAGGATCACCCACAAACACACATATATATATATATA [CACACA_site559] | 9.4 |
| TAAATGTGAAATTTTATATTTTATATAATATACAAT [CACACA_negctrl_site76] | 5.99 |
| ATAATATAAATAATTATACACACTTAATATATATAT [CACACA_site2782] | 8.16 |
| GTATGTATGTATGTATGTACGTATTTATTTATTTAA [XGTACX_site726] | 7.45 |
| CAATTCTTAAGTTCTTGTACGAAAAACGACAATTTA [XGTACX_site3890] | 5.97 |
| ACACATATATATATATATATATATATATATATATAT [CACACA_negctrl_site1766] | 9.38 |
| AAGAAAAATAATTAGGGTGAAAATATATAGAGTAAA [TGCATGCA_negctrl_site590] | 7.06 |
| TATTATATAAAATATTTTATTATATCATCTTCTCTA [XGTACX_negctrl_site319] | 6.34 |
| GGTAATAATATGCATAGTACATAATATATATATATA [XGTACX_site6793] | 8.74 |
| AAAAAAATATATATATGTACATAACTTTGTTGTGAT [XGTACX_site5243] | 6.56 |
| TTTGAACATTTTGCAAGTACAAAAAAATAATATATC [XGTACX_site8079] | 7.08 |
